Experimental data reported in patent US20150218285A1 (TORAY INDUSTRIES, published 2015).

Target: T1, CAPRIN-1 protein on the cell surface of human cancer cells (human, UniProt Q14444 2-709)
T1 sequence (looked up): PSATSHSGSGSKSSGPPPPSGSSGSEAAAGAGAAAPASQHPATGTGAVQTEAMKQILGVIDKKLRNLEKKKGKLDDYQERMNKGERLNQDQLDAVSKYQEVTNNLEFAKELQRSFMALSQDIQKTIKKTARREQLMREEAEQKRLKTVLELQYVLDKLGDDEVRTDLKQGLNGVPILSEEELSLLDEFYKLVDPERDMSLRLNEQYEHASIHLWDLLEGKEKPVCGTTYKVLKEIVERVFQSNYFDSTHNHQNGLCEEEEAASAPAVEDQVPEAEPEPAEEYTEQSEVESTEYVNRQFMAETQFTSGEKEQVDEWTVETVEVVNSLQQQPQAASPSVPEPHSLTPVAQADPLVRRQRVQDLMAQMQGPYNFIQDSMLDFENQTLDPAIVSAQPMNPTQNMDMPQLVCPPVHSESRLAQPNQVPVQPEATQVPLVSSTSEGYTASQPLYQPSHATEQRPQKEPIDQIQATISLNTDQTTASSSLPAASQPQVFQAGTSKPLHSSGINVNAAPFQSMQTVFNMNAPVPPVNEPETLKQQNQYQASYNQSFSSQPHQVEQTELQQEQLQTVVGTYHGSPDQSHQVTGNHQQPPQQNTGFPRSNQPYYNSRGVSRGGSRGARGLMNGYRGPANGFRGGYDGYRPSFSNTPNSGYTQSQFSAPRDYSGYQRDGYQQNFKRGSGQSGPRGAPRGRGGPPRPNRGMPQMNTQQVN
Experiment: cell-based or functional assay

B1: human-mouse chimeric anti-CAPRIN-1 antibody #33 (antibody, human IgG1, kappa)
heavy: GPGLVKPSQSLSLTCSVTGYSITSGYYWNWIRQFPGNKLEWMGYISYDGSNNYNPSLKNRISITRDTSKNQFFLKLNSVTTEDTATYYCATGMAWFAYWAKDSVTPP[no letters for human IgG1 constant region]
light: SPSSLAVSVGEKVTMS[no letters for about 80 residues][no letters for about 120 residues]
In the case of B1, the “cytotoxicity (ADCC, 51Cr release, human NK cells) on Hep3B, HepG2, SK-Hep-1, SW480” value is reported as no less than 20%.
